According to patent WO2008131575A2 (dated 2008):

Biological target: T1, human ALK epitope peptide (amino acids 391-406 of the ALK protein) (human)
T1 construct: the underscore is a remnant of the underlining; In the yeast screen it was fused to LexA; in the ELISA it is called the Alk LBD peptide; also called Alk LBD peptide; AIk LBD
T1 peptide: GRIGRPDNPFRVALEY
Test: ELISA with Alk LBD peptide

Kd: ~7 nM
B1: scFv ESBA521 (scFv)
scFv: QSVLTQPPSVSAAPGQKVTISCSGSTSNIGDNYVSWYQQLPGTAPQLLIYDNTKRPSGIPDRFSGSKSGTSATLGITGLQTGDEADYYCATWDNDKWGVVFGGGTKLEVLGGGGGSGGGGSGGGGSSGGGS[about 100 residues not spelt out]DAWLDVLSDGFDYWGQGTLVTVSS
notes: also called ESBA512; scFv-107
